{"source": "PubChem BioAssay AID602233", "about": "(National Center for Advancing Translational Sciences (NCATS), 2012)", "note": "About 170 (0.045%) of roughly 380,000 compounds were called active. Inconclusive results, whose numbers are uncertain, are shown with a selection of clear calls. Calls come from the whole dose curve; as a rule, active = well fitted inhibition curve with a large enough effect; inconclusive = small, poorly fitted or top-dose-only effect; inactive = no such curve, though single readings can be large or run the other way. No potency is given beside an inconclusive call; the fits are too rough. % is set by controls: 0 for no effect and ±100 for the full control effect; potency is the fitted concentration of half-maximal effect; tags give direction and shape of the fitted curve."}
{"target": "Phosphoglycerate kinase, glycosomal (Trypanosoma brucei brucei) (UniProt P07378)", "assay": "qHTS Assay to Find Inhibitors of Phosphoglycerate Kinase; note: nearly all actives have a fitted effect of over 60% in size", "conditions": "PGK/GAPDH coupled, Kinase-Glo luminescence, 60 min; series mostly up to 57.5 µM; activity change, negative = inhibition: at the top concentration", "procedure,_shortened": "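Recombinant glycosomal PGK reaction used 1,3-bisphosphoglycerate generated in-well by GAPDH (100nM final) in 100mM TEA pH 7.6, 5mM MgCl2, 0.01% Tween-20. After 60 minutes at room temperature, ATP was read by Kinase-Glo Plus luminescence end-point.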"}
{"molecule": "Cn1cnnc1SCC(=O)Nc1nc(-c2ccccc2)cs1", "activity change, negative = inhibition": "inactive: -7.43%"}
{"molecule": "N/C(=N\\OC(=O)/C=C/c1ccccc1)c1ccccn1", "Potency": "inconclusive [inhibitor, partial curve, poor fit]"}
{"molecule": "Cc1ccc(S(=O)(=O)CCC(=O)Nc2nnc(-c3ccc(F)cc3)o2)cc1", "activity change, negative = inhibition": "inactive: -4.26%"}
{"molecule": "C(=C\\c1nc2ccccc2[nH]1)/c1ccccc1", "Potency": "inconclusive [inhibitor, partial curve]"}
{"molecule": "Cc1cccc(C)c1NC(=O)c1c(C)oc2c1C1=NCCN1C=N2", "activity change, negative = inhibition": "inactive: -2.11%"}
{"molecule": "O=C(/C=C/c1ccc([N+](=O)[O-])cc1)Nc1cccc(C(=O)Nc2ccccc2C(=O)O)c1", "Potency": "inconclusive [inhibitor, single point]"}
{"molecule": "Nc1ccc(S(=O)(=O)c2cc(O)c3ccccc3c2O)cc1", "activity change, negative = inhibition": "inactive: -7.96%"}
{"molecule": "CSc1nc(NCCOC(C)=O)c(C#N)c(-c2ccc(C(C)(C)C)cc2)n1", "Potency": "inconclusive [inhibitor, partial curve, poor fit]"}
{"molecule": "Cc1ccc(-c2nc3ccccc3[nH]2)s1", "Potency": "inconclusive [inhibitor, single point]"}
{"molecule": "COc1ccc(Br)cc1/C=N/Nc1ccc(S(=O)(=O)Nc2ccccc2C(=O)O)cc1[N+](=O)[O-]", "Potency": "inconclusive [inhibitor, partial curve, poor fit]"}
{"molecule": "O=C(Nc1cc(-c2ccccc2)sc1C(=O)O)c1cccc(F)c1", "Potency": "inconclusive [inhibitor, single point]"}
{"molecule": "O=C1CCCC2=C1C(c1ccco1)Nc1ccc3ccccc3c12", "note": "(centres undefined)", "Potency": "inconclusive [inhibitor, partial curve]"}
{"molecule": "COC(=O)c1ccccc1NC(=O)c1noc2c1CCC2", "Potency": "inconclusive [inhibitor, single point]"}
{"molecule": "O=C(Cc1nnc(NC(=O)c2ccccc2)s1)N/N=C\\c1ccc(O)c(O)c1", "Potency": "inconclusive [inhibitor, partial curve, poor fit]"}
{"molecule": "CCc1cc2ccc(OC)cc2nc1SCC(=O)N1CCN(C(=O)c2ccco2)CC1", "activity change, negative = inhibition": "inactive: 7.75%"}
{"molecule": "CC(=O)Oc1cc(C(=O)OCC(=O)N2CCc3ccccc3C2)cc(OC(C)=O)c1OC(C)=O", "Potency": "inconclusive [inhibitor, partial curve]"}
{"molecule": "O=c1nc2s/c(=C\\c3ccco3)c(=O)n2nc1Cc1ccc(F)cc1", "Potency": "inconclusive [inhibitor, partial curve, poor fit]"}
{"molecule": "COc1ccc(OC)c(S(=O)(=O)Nc2cccc3ccccc23)c1", "activity change, negative = inhibition": "inactive: 14%"}
{"molecule": "N#Cc1c(N2CCCC2)nc(N)c2c(N)nc(N3CCCC3)cc12", "Potency": "inconclusive [inhibitor, partial curve, poor fit]"}
